Experiment [1] deals with HSkMC (human skeletal muscle cells). As to the kind of experiment: cytotoxicity call (relative viability < 0.9). The following applies: 10 µM.
For experiment [2], the system named is HepG2. As to the kind of experiment: cytotoxicity call (relative viability < 0.9). The settings on record: 10 µM.
In experiment [3] the test system is S. aureus RN4220. The experiment in a line: growth inhibition call (relative growth <= 0.2). The settings on record: 50 µM.

Some of the results follow.

In the case of `C[C@H](CO)N1C[C@H](C)[C@H](CN(C)S(=O)(=O)c2ccccc2F)Oc2ncc(C#Cc3ccccc3F)cc2C1=O`, the cytotoxicity call in experiment [1] and in experiment [2] was “inactive” in each case. Further, in experiment [3], the growth inhibition call was “inactive”.
As to `CCC(=O)N1C[C@]2(C1)CN([C@@H](CO)c1c2c2ccc(cc2n1C)OC)C(=O)CN1CCOCC1`, the cytotoxicity call in experiment [1] and in experiment [2] was “inactive” in each case. In experiment [3], the growth inhibition call is “inactive”.
Turning to `Nc1nnc2n1CCS2`, the cytotoxicity call in experiment [1] and in experiment [2] was “inactive” throughout. In experiment [3], the growth inhibition call is “inactive”.
As to `COc1ccccc1CCCCN`, the cytotoxicity call in experiment [1] and in experiment [2] was “inactive” in each case. Besides, the growth inhibition call in experiment [3] is “inactive”.
`CC(C)CC#Cc1cnc2c(c1)C(=O)N([C@H](C)CO)C[C@H](C)[C@@H](CN(C)S(=O)(=O)c1cccs1)O2`: the cytotoxicity call in experiment [1] and in experiment [2] was “inactive” in each case. In addition, in experiment [3], the growth inhibition call is “inactive”.
Take `O=C(CN1CCOCC1)NCC[C@H]1CC[C@H](NC(=O)c2ccc3c(c2)OCO3)[C@@H](CO)O1`: the cytotoxicity call in experiment [1] and in experiment [2] was “inactive” each time. The growth inhibition call in experiment [3] is “inactive”.
`C[C@@H]1CN([C@H](C)CO)C(=O)c2cc(NC(=O)Nc3cccc4ccccc34)ccc2O[C@@H]1CN(C)Cc1ccc(-c2ccccc2)cc1`: the cytotoxicity call in experiment [1] is “inactive”. The cytotoxicity call in experiment [2] was “active”. For the same molecule, the growth inhibition call in experiment [3] was “inactive”.
On to `CS(=O)(=O)N1CCn2cc(Cn3cncn3)nc2C1`, for which the cytotoxicity call in experiment [1] and in experiment [2] was “inactive” in each case. Also, in experiment [3], the growth inhibition call is “inactive”.
With `C[C@@H]1CN([C@@H](C)CO)C(=O)c2cc(NC(=O)CCC(F)(F)F)ccc2O[C@@H](C)CCCCO[C@@H]1CN(C)C(=O)Nc1ccccc1`, the cytotoxicity call in experiment [1] and in experiment [2] was “inactive” in each case. Besides, the growth inhibition call in experiment [3] is “inactive”.
On to `COc1cccc(C#Cc2cnc3c(c2)C(=O)N([C@@H](C)CO)C[C@H](C)[C@@H](CN(C)C(=O)C2CCC2)O3)c1`, for which the cytotoxicity call in experiment [1] and in experiment [2] was “inactive” each time. Moreover, the growth inhibition call in experiment [3] is “inactive”.
Consider `C[C@@H]1CCCCO[C@@H](CN(C)C(=O)Nc2ccc(F)cc2)[C@H](C)CN([C@@H](C)CO)C(=O)c2cc(NC(=O)c3ccccc3)ccc2O1`, for which the cytotoxicity call in experiment [1] and in experiment [2] was “inactive” in each case. Besides, in experiment [3], the growth inhibition call is “inactive”.
As for `C[C@@H]1CN([C@@H](C)CO)C(=O)Cc2cc(NC(=O)CCCCCC(=O)Nc3ccccc3N)ccc2O[C@@H]1CN(C)Cc1ccc(Oc2ccccc2)cc1`, the cytotoxicity call in experiment [1] is “inactive”. Further, the cytotoxicity call in experiment [2] was “active”. For the same molecule, the growth inhibition call in experiment [3] is “inactive”.
In the case of `CO[C@H]1CN(C)C(=O)c2cc(NC(=O)Nc3ccccc3F)ccc2OC[C@@H](C)N(CCC(F)(F)F)C[C@@H]1C`, the cytotoxicity call in experiment [1] and in experiment [2] was “inactive” in each case. Also, the growth inhibition call in experiment [3] was “inactive”.
Turning to `C[C@@H]1CN([C@H](C)CO)C(=O)c2cc(NC(=O)Nc3ccccc3)ccc2O[C@@H](C)CCCCO[C@H]1CN(C)Cc1ccccc1`, in experiment [1], the cytotoxicity call is “inactive”. In addition, the cytotoxicity call in experiment [2] was “active”. The growth inhibition call in experiment [3] is “inactive”.
In the case of `COCC#Cc1ccc2c(c1)O[C@@H](CN(C)C(=O)Nc1ccccc1F)[C@@H](C)CN([C@@H](C)CO)S2(=O)=O`, the cytotoxicity call in experiment [1] and in experiment [2] was “inactive” throughout. In addition, the growth inhibition call in experiment [3] was “inactive”.
`C[C@@H]1CN([C@H](C)CO)C(=O)c2cccc(NC(=O)Nc3ccc(F)cc3)c2O[C@@H]1CN(C)C(=O)Nc1cccc2ccccc12`: the cytotoxicity call in experiment [1] and in experiment [2] was “inactive” in each case. Also, the growth inhibition call in experiment [3] is “inactive”.
Consider `COc1ccc2c3c([nH]c2c1)[C@@H](CO)N(Cc1cc(ccc1F)F)C[C@]13CCN(CC1)C(=O)CN(C)C`, for which the cytotoxicity call in experiment [1] and in experiment [2] was “inactive” throughout. The growth inhibition call in experiment [3] is “inactive”.
For the molecule `COc1ccc2c3c(n(c2c1)C)[C@H](CO)N(C[C@]13CCN(CC1)Cc1cccc(c1)F)C(=O)Nc1ccc(cc1)F`, in experiment [1], the cytotoxicity call was “inactive”. Further, the cytotoxicity call in experiment [2] was “active”. The growth inhibition call in experiment [3] was “inactive”.
Take `C[C@@H]1CN([C@H](C)CO)C(=O)c2cccc(NC(=O)C3CC3)c2O[C@H]1CN(C)Cc1ccc(-c2ccccc2)cc1`: the cytotoxicity call in experiment [1] and in experiment [2] was “inactive” in each case. Further, in experiment [3], the growth inhibition call was “inactive”.
As to `O=C(C[C@@H]1C=C[C@@H](NC(=O)CN2CCOCC2)[C@H](CO)O1)NC1CCC1`, the cytotoxicity call in experiment [1] and in experiment [2] was “inactive” in each case. Moreover, the growth inhibition call in experiment [3] is “inactive”.
Turning to `C[C@H](CO)N1C[C@H](C)[C@H](CN(C)Cc2ccc(-c3ccccc3)cc2)Oc2c(NC(=O)c3ccc(-c4nccs4)cc3)cccc2C1=O`, the cytotoxicity call in experiment [1] and in experiment [2] was “inactive” throughout. Further, in experiment [3], the growth inhibition call is “inactive”.
On to `CC(C)(C)c1ccc(S(=O)(=O)Nc2nccnc2-c2ccc(CNCc3ccc4c(c3)OCO4)cc2)cc1`, for which the cytotoxicity call in experiment [1] and in experiment [2] was “inactive” in each case. Also, the growth inhibition call in experiment [3] was “inactive”.
For `CC(=O)N1C(=O)N(C(C)=O)[C@@H](O)[C@H]1O`, the cytotoxicity call in experiment [1] and in experiment [2] was “inactive” each time. Further, in experiment [3], the growth inhibition call was “inactive”.
For `Clc1ccc(-c2nnc(Nc3ccccc3)s2)c(Cl)c1`, the cytotoxicity call in experiment [1] and in experiment [2] was “inactive” in each case. For the same molecule, in experiment [3], the growth inhibition call is “inactive”.
Consider `CC(C)NC(=O)Nc1ccc2c(c1)C(=O)N([C@@H](C)CO)C[C@@H](C)[C@@H](CN(C)S(=O)(=O)c1cn(C)cn1)OCCCC[C@H](C)O2`, for which the cytotoxicity call in experiment [1] and in experiment [2] was “inactive” in each case. Further, in experiment [3], the growth inhibition call is “inactive”.
Consider `C[C@@H]1CN([C@H](C)CO)C(=O)c2cc(NS(=O)(=O)c3cn(C)cn3)ccc2O[C@@H](C)CCCCO[C@@H]1CN(C)CC1CC1`, for which the cytotoxicity call in experiment [1] and in experiment [2] was “inactive” in each case. Besides, the growth inhibition call in experiment [3] was “inactive”.
On to `C[C@@H]1CCCCO[C@H](CN(C)Cc2ccc(Cl)c(Cl)c2)[C@@H](C)CN([C@@H](C)CO)C(=O)c2cc(NC(=O)CCC(F)(F)F)ccc2O1`, for which the cytotoxicity call in experiment [1] and in experiment [2] was “inactive” each time. Moreover, in experiment [3], the growth inhibition call was “inactive”.
In the case of `C[C@@H]1CN([C@H](C)CO)C(=O)c2cc(NC(=O)Cn3cnnn3)ccc2O[C@H]1CN(C)S(=O)(=O)c1cn(C)cn1`, the cytotoxicity call in experiment [1] and in experiment [2] was “inactive” throughout. For the same molecule, the growth inhibition call in experiment [3] is “inactive”.
For `C[C@H](CO)N1C[C@H](C)[C@H](CN(C)S(=O)(=O)c2ccccc2)OCCCC[C@H](C)Oc2ccc(NS(C)(=O)=O)cc2C1=O`, the cytotoxicity call in experiment [1] and in experiment [2] was “inactive” throughout. In addition, the growth inhibition call in experiment [3] is “inactive”.
As to `CN1CCN(C(=O)C[C@H]2CC[C@H]3[C@@H](COC[C@H](O)CN3Cc3ccc4c(c3)OCO4)O2)CC1`, the cytotoxicity call in experiment [1] and in experiment [2] was “inactive” each time. In addition, the growth inhibition call in experiment [3] was “inactive”.

The values above are taken from the antibiotic and cytotoxicity screens of Wong et al. (2023).
